The densities may have been worked out from excess volumes.
Test: xn = mol fraction of the nth substance listed
Conditions: 100 kPa

CCCN + CCCCCCCC[n+]1ccn(C)c1.F[P-](F)(F)(F)(F)F
mass density [kg/m3]
Conditions	x1 = 0.0976	x1 = 0.218	x1 = 0.263	x1 = 0.3677	x1 = 0.4676	x1 = 0.5629	x1 = 0.6971	x1 = 0.7972	x1 = 0.9087	x1 = 1
293.15 K	1223.5	1201.2	1191.9	1167.5	1138.8	–	1039.6	969.6	857.1	–
298.15 K	1220	1198	1189	–	–	1102.3	–	–	856	717.3
303.15 K	1215.9	1193.8	1184.7	1160.3	1131.6	1097.1	–	962.1	–	–
308.15 K	1212.2	1190.4	–	1156.5	1128	1093.5	1027.7	957.6	–	703.7
313.15 K	–	1186.5	–	1152.6	1123.6	1089.4	–	953	839.4	698.3

CCCN + CCCCCC[n+]1ccn(C)c1.F[P-](F)(F)(F)(F)F
x1 = 1
Conditions	mass density [kg/m3]
293.15 K	719.6
303.15 K	709
308.15 K	703.7
313.15 K	698.3

CCCN + CCCC[n+]1ccn(C)c1.F[P-](F)(F)(F)(F)F
mass density [kg/m3]
Conditions	x1 = 0.0684	x1 = 0.155	x1 = 0.2613	x1 = 0.3519	x1 = 0.4366	x1 = 0.5956	x1 = 0.69	x1 = 0.79	x1 = 0.9026	x1 = 1
293.15 K	1353.2	1330.3	1297.2	–	1230.3	–	1083.6	996.9	–	–
298.15 K	–	1326.4	1293.7	–	1226.3	1143.3	–	992.7	863	–
303.15 K	–	–	1289.9	–	1222.1	–	1074.1	987.9	–	709
308.15 K	1341.3	–	1285.9	1253.2	1218.3	1134.7	1069.6	983.1	853.2	703.7
313.15 K	1337.5	1314.9	1281.8	1248.7	1214	–	–	978.4	847.8	698.3

CCCCCCCC[n+]1ccn(C)c1.F[P-](F)(F)(F)(F)F + CCCN
x2 = 0
Conditions	mass density [kg/m3]
293.15 K	1238.8
298.15 K	1234.9
308.15 K	1227.1
313.15 K	1223.3

CCCCCC[n+]1ccn(C)c1.F[P-](F)(F)(F)(F)F + CCCN
mass density [kg/m3]
Conditions	x2 = 0	x2 = 0.0873	x2 = 0.1718	x2 = 0.2686	x2 = 0.3426	x2 = 0.4606	x2 = 0.5627	x2 = 0.6597	x2 = 0.7913	x2 = 0.902
293.15 K	1296.4	–	1262	1238	1216.8	1176.8	1133.1	1080.5	984	867.2
298.15 K	1292.3	1276.3	–	1234.2	1213.1	1172.9	1129.3	1076.7	980	862.8
303.15 K	1288.3	1272.3	–	1230.1	1209.1	–	–	1072.5	975.6	858.2
308.15 K	1284.4	–	1250.6	1226.2	1205.3	1164.7	–	–	971.3	853.7
313.15 K	–	1264.7	1246.8	1222.3	1201.2	1160.6	–	1064.4	–	848.9

CCCC[n+]1ccn(C)c1.F[P-](F)(F)(F)(F)F + CCCN
x2 = 0
Conditions	mass density [kg/m3]
293.15 K	1370.3
298.15 K	1366.2
303.15 K	1362
308.15 K	1357.9
313.15 K	1353.8

From a compilation of properties of binary mixtures (doi:10.1007/s10953-015-0325-1)
